± gives the standard deviation of the averaged measurements. Some of the results follow.
Test system: PfAP2-G AP2 domain (GST-tagged)
Assay: gcPBM binding intensity (ln(normalized median fluorescence intensity)); higher = stronger DNA binding
Procedure, shortened: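 The binding buffer was 1× PBS containing 1% milk, 0.2 mg/ml BSA, 0.5% salmon testes DNA and 0.03% Triton X-100. In it, GST-tagged P. falciparum DNA-binding domains expressed in E. coli were applied for 1 h to an Agilent 4 × 180k array of primer-extended double-stranded 36-bp intergenic genomic probes plus negative controls. Binding intensity, read with Alexa488 anti-GST antibody and a 488 nm scan, is the highest Masliner-normalised natural-log median intensity across replicate spots of either probe orientation.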

Row | Sequence | gcPBM binding intensity (ln)
1 | TATGTATATTTTAATTGTACGTGTATGGTTGTAAAT [XGTACX_site8738] | 11.5 ± 1.1
2 | TGATTAATAATTTTCTTCATACATTAAACATCTTTT [TGCATGCA_negctrl_site342] | 9.67 ± 0.099
3 | TTTTTTTTTTCATTAACACACATAAATATATATATA [CACACA_site5759] | 10 ± 0.2
4 | CACTAATAGTGGATTACACACATATATCTGTATTTA [CACACA_site5403] | 10.09 ± 0.042
5 | TTAATGTTATATGTGTGTACATATAAGTTTAGTAAA [XGTACX_site4651] | 11.3 ± 0.91
6 | ATAGTATCTGGTAGCTGTACGAGTCGTAGAGTGTAA [XGTACX_site4936] | 11.3 ± 0.82
7 | ATATAAAACTAATTTCTTTTTCTCCTTTTATTTTGT [CACACA_negctrl_site1251] | 9.6 ± 0.099
8 | AATATATATTAATAAAGTACAGGAAATATTTTTACC [XGTACX_site7052] | 11.5 ± 0.85
9 | AAAATACATAGACACACACACACACGGATATAAATA [CACACA_site7643] | 10.2 ± 0.26
10 | ATATATATATATAAATGTACAGATATATTTTTTATT [XGTACX_site5445] | 10.9 ± 0.44
11 | TTTAATTTGATAGACACATGCACACGTGCAATACTT [TGCATGCA_site777] | 10.06 ± 0.092
12 | TACTAAAAAATATAAACACACATATATTTTACATAT [CACACA_site2042] | 9.8 ± 0.11
13 | GACATAAAATTCAAAGTGCATAAATAAAATAAACCC | 10.3 ± 0.26
14 | TTTTTTTTTTTTTTCTGTACAAATTAAATCTACATA [XGTACX_site8285] | 10.6 ± 0.64
15 | ATATTTAAAAAATGATGTACAAAAATGTAGTCACAC [XGTACX_site6208] | 11.2 ± 0.78
16 | GAAATTAAATGACATACACACTATATTATAGATTTT [CACACA_site7468] | 9.82 ± 0.11
17 | TATTTTAATGAATTCACACATATAATTTATTTTATA [CACACA_site4538] | 9.69 ± 0.15
18 | TTTGTAAGAAATAAATGTACAAAAATTAATTTTTAT [XGTACX_site8983] | 10.6 ± 0.41
19 | ATTTGCAGTATTTCGGAACACACAAACATAAATATG [CACACA_site8726] | 10.4 ± 0.23
20 | TATAAAAAATTCTTCCTTATTTTATGATATATATAT [TGCATGCA_negctrl_site57] | 9.735 ± 0.078
21 | ATATTTCAAAATGAAAGTACATATAAAAATTATACA [XGTACX_site3787] | 11.1 ± 0.69
22 | AAGTATTTTTTTACATGTACATATATATATATATAT [XGTACX_site5065] | 11.3 ± 0.95

Row | Sequence | gcPBM binding intensity (ln)
23 | AAATAGATAAGTAGGACACACATATATATATATTAA [CACACA_site1862] | 11.3 ± 0.9
24 | TATTCCTATAAAAAAACACACACATATAAATATATA [CACACA_site8727] | 9.875 ± 0.049
25 | AAATATATTTCACGCACACACACCCCAAATAAATTT [CACACA_site3820] | 10.5 ± 0.32
26 | AAATGAATATTCATAGTGCAATATATAAATGAAAAT | 10.07 ± 0.049
27 | CAAAAACATACCTACACACACAATATGTATTTATAA [CACACA_site5862] | 9.985 ± 0.021
28 | AATTACATTCAATTCTGTACTAATAGTAATTCAAAA [XGTACX_site7419] | 11 ± 0.63
29 | TTTAATTATTAGTGTGCACACAACTATGAGTTTTTA [CACACA_site8997] | 10.5 ± 0.29
30 | TTAAAAATGTGTGTGCGTACATAATATTTCGAAAAA [XGTACX_site8197] | 11.6 ± 1
31 | GTACAAATGATTAATCCTTTACTTATATATATATAT [XGTACX_negctrl_site138] | 10.8 ± 0.64
32 | ATAATTACATAGATTGGTACACATTTTTGATTGTAT [XGTACX_site3802] | 11.1 ± 0.79
33 | TTCTGGCAAAATAACACACACATATATTTTATATAC [CACACA_site3242] | 10.24 ± 0.049
34 | GAACATTTACGCCCCACACACCTACCAACAAAAAAA [CACACA_site7746] | 10.6 ± 0.48
35 | TTCTTAAAAAAAAATAAAATAAAAAAAAAAATAAAA [CACACA_negctrl_site99] | 9.56 ± 0.14
36 | CATTTTTTTTTATAAATACACACGTACGGGTGCATA [CACACA_site1569] | 11 ± 0.8
37 | AAATGAACACGAAAGGAAAAAAAAATATATATATAT [CACACA_negctrl_site267] | 10.1 ± 0.74
38 | TTTTTCATATGACACACACACAAAAATAATGTGGAA [CACACA_site7692] | 10.2 ± 0.23
39 | TCATTTTATTATTCTACACACTTATCTATAATTATA [CACACA_site34] | 10.16 ± 0.014
40 | TAAAATATAGAAAATTTTATTAAATATAAAAAAATA [CACACA_negctrl_site1441] | 9.495 ± 0.064
41 | ATTAAATAAAAAAACACACACATATATACATATATA [CACACA_site3445] | 9.81 ± 0.028
42 | CATAATAATAGAAACACACACACATAGACATATATA [CACACA_site1308] | 10.1 ± 0.17
43 | CATATATAACCTATAGCACACATATATAATATATAT [CACACA_site8544] | 10.2 ± 0.21
44 | AAAAATATATATTCAGTGCATATAACAAAAATTATA [GTGCAC_site9794] | 9.89 ± 0.085

Row | Sequence | gcPBM binding intensity (ln)
45 | TATATATATATATATTGTACATATGTGGTATAAATG [XGTACX_site6108] | 11.1 ± 0.66
46 | TTATATAAACACCAACGTACGTTCATTTAACATAAC [XGTACX_site5250] | 11.1 ± 0.59
47 | AAGAACTTTAATAAGTGTACATTTATTGGAAACATG [XGTACX_site2995] | 11.3 ± 0.65
48 | GCATATCTATTTTCACGTACACAAACATGTATATAT [XGTACX_site3722] | 11.6 ± 0.79
49 | ATATTACATATGTGCTGTACGCAATATATTATATCT [XGTACX_site1520] | 11.6 ± 1
50 | CCCATTTTGACAAAAAGTACAAGTTCAGGTTTTATA [XGTACX_site1532] | 11.3 ± 0.88
51 | TATAATATTAATGACTGTACTCATACGTATATTTAT [XGTACX_site5493] | 11.6 ± 0.88
52 | TTTAATTTATATTTTGTGCACATCTTATTATATATA [GTGCAC_site9630] | 10.5 ± 0.32
53 | AATTTTGTTTAGCACACACACATACATACATACATA [CACACA_site5707] | 10.3 ± 0.2
54 | TATATTTATTCCTGTTGTACTTTATATTATTTTTTT [XGTACX_site1415] | 11.3 ± 0.6
55 | ATATATATATATATATGTACATACATACATAGAACT [XGTACX_site2214] | 11.5 ± 0.7
56 | TCCCATTTATTATGGTGTACAATTAATTAAACATAA [XGTACX_site750] | 11.4 ± 0.91
57 | TTTCTCTTCTAAACATGTACAAAAATACATACATAT [XGTACX_site1365] | 10.9 ± 0.65
58 | AAAAATTAAAATATTATAGTTGAAACTTTTATAAAT [TGCATGCA_negctrl_site454] | 9.52 ± 0.15
59 | ACATATTAATTATTATGACATACATATCAGTTATTA [TGCATGCA_negctrl_site126] | 9.79 ± 0.11
60 | CATGTGATAATGATTAGTACATAAACAAAAATATAT [XGTACX_site5866] | 11.2 ± 0.61
61 | AGAAAAATAAACAAATGTACAAATTATTACTATATA [XGTACX_site1087] | 10.49 ± 0.021
62 | TATATTATTTTATATTGTACATACCAAATATTATAT [XGTACX_site1693] | 11 ± 0.64
63 | CGTAAATTTTTTAAAAGTACAAAAAGATACGAGAAA [XGTACX_site8722] | 11.3 ± 0.76
64 | TAAACAAATAAATAAACACACAATATATGTATATAT [CACACA_site3803] | 9.83 ± 0.11
65 | TTTTTACGTAAACAAAATAATTATATAATATTATTT [CACACA_negctrl_site1769] | 10.15 ± 0.099
66 | TATTTTTCTTTTTTCTGTACTCACACAAATAGAAGG [XGTACX_site7329] | 11.6 ± 0.81

Row | Sequence | gcPBM binding intensity (ln)
67 | ATATTTATATTTGTATGTACTTAAGTTTGTATGTAT [XGTACX_site3608] | 11.3 ± 0.87
68 | TTTTTAATTCAAAAAATAATATATTATATTTCAAAT [CACACA_negctrl_site737] | 9.57 ± 0.14
69 | ATATATTAGGGCAAATTTTCTGACATTACATCAGTC [CACACA_negctrl_site1166] | 9.95 ± 0.014
70 | AAATAATTAGCTATTTGTACATATATACATATTTAT [XGTACX_site4652] | 10.6 ± 0.26
71 | TTAATAACAAAATAAACACACATATATAAATCCACA [CACACA_site1590] | 10.1 ± 0.17
72 | ATATATATAATATAGGTGCACTACTTATTTAAAAAA | 10.5 ± 0.36
73 | TAAAAATGTAGACACACACACATATATATATTTAAT [CACACA_site1528] | 10.2 ± 0.18
74 | TTTTTTAGAAAAAGTTGTACTTTTTTTTTTTTTTTT [XGTACX_site535] | 11.6 ± 0.93
75 | TGTGTTAAATGTAATAGTGAATAAATAATTTTAACA [TGCATGCA_negctrl_site161] | 9.725 ± 0.049
76 | AAAATGAATATAATGACGCACACTTAAAATTGTTAA [CACACA_site2509] | 10.2 ± 0.28
77 | ATATTTTAAATGTTATGTACACATTTGTTGTTTACA [XGTACX_site7353] | 11.4 ± 0.83
78 | AATATTATTATTATTACACACACAATTATATTTACC [CACACA_site8061] | 10.1 ± 0.16
79 | ATTTTTTTTTTTATTTTCTTTGAGATTATCTTAATT [CACACA_negctrl_site1209] | 9.78 ± 0.14
80 | TTAATTTGTTCTTACACACACATATATATATATTTA [CACACA_site1185] | 10.2 ± 0.16
81 | TATATATATACATAATGTACATTTTATAAATTTACA [XGTACX_site5283] | 10.8 ± 0.53
82 | ATAAATTGTTCTTTTTGTGTAAACAGAATATTAAAA [CACACA_negctrl_site1022] | 10.1 ± 0.21
83 | ACTACCTATATTTAAGCATGCAAAAAATAAAAATAT [TGCATGCA_site238] | 10 ± 0.29
84 | AAACCAATAAAAAACTGTACAAAAATTATATGAGAT [XGTACX_site1269] | 10.8 ± 0.28
85 | GAATAAAAAATATATGTGCACATATAAACTTAAAAT [GTGCAC_site9554] | 10.3 ± 0.18
86 | TAATATAAAGGAAAAGAAAAGAAAAGAATATACAAT [CACACA_negctrl_site1369] | 9.635 ± 0.035
87 | ATACAACATATATATACACACATATAATAATAATAA [CACACA_site3367] | 10.1 ± 0.29
88 | AATTATTTTTTGTATGAACACACAACTTAATTATGA [CACACA_site8774] | 10.1 ± 0.22
